Measured values published in PMC2289905 (The Journal of Cell Biology, 1991).

B1: pre-pro-TGFbeta1, wild type, cell-associated precursor (natural protein)
chain: not shown
B2: pre-pro-TGFbeta1 insertion mutant In50, cell-associated precursor (natural protein)
chain: not shown
B3: pre-pro-TGFbeta1 insertion mutant In154, cell-associated precursor (natural protein)
chain: not shown
B4: pre-pro-TGFbeta1 insertion mutant In170, cell-associated precursor (natural protein)
chain: not shown

Biological target: the molecule itself
Test: nonreducing SDS-PAGE with immunoblot

Stoichiometry N, 2:
B1
B2
B3
B4
